Test results: PubChem BioAssay AID485297 (National Center for Advancing Translational Sciences (NCATS), 2010)
Out of some 320,000 compounds screened, about 9,100 (2.8%) were called active. Inconclusive means that the source gave no clear call. Such entries were picked first, then a sample of the others. The call rests on the fitted dose curve; in most records, active means well fitted activation curve with a large enough effect; inconclusive means small, poorly fitted or top-dose-only effect; inactive means no such curve, though single readings can be large or run the other way. A potency beside an inconclusive call is a rough fit, not a confirmed value.

assay: qHTS Assay for Rab9 Promoter Activators; details: Huh7 Rab9 promoter-luciferase reporter, luminescence, 24 h; series mostly up to 9.22 µM; further: nearly all actives have a fitted effect of over 60% in size
Outline: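 Huh7 cells stably carrying Rab9 promoter–luciferase reporter, plated 1500 cells/well, compound added after 2 h and incubated 24 h at 37 °C; luciferase luminescence then read after 10 min with detection reagent.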
Potency means the concentration at half of the fitted maximal effect; tags describe the fitted curve by direction and shape.

Potency, inconclusive:
O=C(Cc1ccccc1F)Nc1nc(-c2cccs2)cs1 5.62 µM [activator, single point]
CN(C)c1ccc(N=Nc2nc3ccccc3n2C)cc1 3.55 µM [activator, single point]
CC(=O)Nc1ccccc1OCC(=O)NC(C)c1ccccc1 (centres undefined) 1 µM [activator, single point]
Cc1ccc2c(c1)Cc1nc3ccccc3nc1-2 3.55 µM [activator, single point]
Cc1cc(C)cc(-c2nc(-c3ccncc3)no2)c1 3.55 µM [activator, single point]
COc1ccc(OC)c(Cc2nnc(CCC(=O)N3CCCCC3)o2)c1 6.31 µM [activator, single point]
FC(F)(F)c1nc(Oc2ccccc2)c2ccccc2n1 5.62 µM [activator, single point]
Cc1oc2c(c1C(=O)Nc1cccc(C(=O)O)c1)CCCC2 4.47 µM [activator, partial curve]
O=[N+]([O-])c1ccc(/C=N/Nc2ccc3ccccc3c2)o1 3.55 µM [activator, single point]
Cc1nc(Nc2ccccc2C(F)(F)F)sc1C(=O)N(C)C 3.16 µM [activator, partial curve]
c1ccc(CSc2n[nH]c(-c3ccco3)n2)cc1 3.16 µM [activator, single point]
CCOC(=O)N1CCN(C(=O)c2cc(COc3cccc(C(C)=O)c3)on2)CC1 2.51 µM [activator, partial curve]
CCCCC(=O)N/N=C(C)/C=C/c1ccccc1F 3.98 µM [activator, single point]
CN(C)c1oc(/C=C/c2ccccc2)nc1C#N 5.62 µM [activator, single point]
CSc1ccccc1NC(=O)c1cc(-c2ccc3c(c2)OCO3)on1 0.562 µM [activator, full curve]
COc1ccccc1C(=O)Nc1ccc2c(c1)nc(CCNC(C)=O)n2C 1.78 µM [activator, partial curve]
CS(=O)(=O)Nc1ccc(C(=O)Nc2ccc3c(c2)OCCO3)cc1 6.31 µM [activator, single point]
CN(C)C(CNC(=O)c1cc2ccccc2oc1=O)c1ccccc1 (centres undefined) 5.62 µM [activator, single point]
Cc1cc2cc(CNC(=O)Nc3ccccc3)ccc2[nH]1 2.82 µM [activator, partial curve]
COCCCC1CCN(C(=O)C2CCC(=O)N(CCc3ccccc3)C2)CC1 (centres undefined) 5.62 µM [activator, single point]
O=[N+]([O-])c1cc(Cl)ccc1-c1nc(-c2ccncc2)no1 3.16 µM [activator, partial curve]
O=C(COc1ccccc1C(=O)c1cnn(-c2ccccc2)c1)Nc1ccc2ccccc2c1 3.55 µM [activator, single point]
Cc1ccc(O)c(N=CC2=C(O)c3ccccc3C2=O)c1 5.62 µM [activator, single point]
CC(C)(C)c1ccc(OCc2cnc(Cl)s2)cc1 6.31 µM [activator, single point]
COC(=O)c1cccc(NC(=O)Nc2ccc(Cl)cc2Cl)c1 2.82 µM [activator, partial curve]
O=C(Nc1ccc(F)c(Cl)c1)C1CC(=O)n2c(nc3ccccc32)N1 (centres undefined) 1.26 µM [activator, single point]
O=C(Nc1nccs1)C1Cc2ccccc2CN1S(=O)(=O)c1ccc(F)cc1 (centres undefined) 3.98 µM [activator, single point]
COc1ccc(NCc2nc3ccccc3n2CCOc2ccccc2)cc1 3.98 µM [activator, single point]
CC(=O)Nc1cccc(C(=O)NCCc2ccco2)c1 3.98 µM [activator, single point]
Nc1c(N=Nc2ccccc2F)c(=O)[nH]n1-c1ccccc1 5.62 µM [activator, single point]
Cc1cc(NC(=O)c2ccc(F)cc2)no1 3.16 µM [activator, single point]
COc1ccc(CC(=O)N2CCC(c3ccccc3)C2)cc1 (centres undefined) 2.82 µM [activator, partial curve]
CC(C)(C)NC(=S)NNC(=O)c1cccc(Br)c1 1 µM [activator, partial curve]
O=C(/C=C/c1ccccc1Cl)NCc1cccs1 3.98 µM [activator, partial curve]
O=[N+]([O-])c1cc2c(c(CSc3ncccn3)c1)OCOC2 3.55 µM [activator, partial curve]
O=C(OC1CCCCC1)c1ccc2c(c1)C1C=CCC1C(C(=O)O)N2 (centres undefined) 2.82 µM [activator, partial curve]
CCn1ncc(C(=O)Nc2cccc(Cl)c2)c1C 5.62 µM [activator, single point]
Cc1ccccc1NC(=O)OCc1ccccc1 3.98 µM [activator, single point]
Cc1ccc(NC(=O)C2CCCN(C(=O)Nc3ccc(F)cc3)C2)cc1 (centres undefined) 1.26 µM [activator, single point]
O=C(CN1C(=O)c2ccccc2S1(=O)=O)NCCC1=CCCCC1 3.55 µM [activator, single point]
Cc1ccc2c(c1)c(C)c(C)n2CC(O)Cn1nnc2ccccc21 (centres undefined) 2.51 µM [activator, partial curve]
Cc1nc(-c2ccc(C(=O)Nc3cccc(Br)c3)cc2)cs1 0.316 µM [activator, partial curve]
Brc1cc(Br)c2nc(-c3ccc(N4CCOCC4)cc3)ccc2c1 6.31 µM [activator, single point]
O=C(NNC(=O)c1ccccc1O)c1ccco1 3.16 µM [activator, single point]
O=C(N/N=C/c1cccs1)c1cccc2cc[nH]c12 3.16 µM [activator, single point]
CCn1c(SCC(=O)Nc2ccc(C(C)=O)cc2)nc2ccccc21 1.78 µM [activator, partial curve]
CCCc1cc(C(=O)NCC(C)C)no1 3.55 µM [activator, partial curve]
O=C(NC(=S)Nc1ccc(Br)cn1)c1cccnc1 3.55 µM [activator, partial curve]
S=c1[nH]c(-c2ccccc2)cn1/N=C/c1cccs1 1.58 µM [activator, partial curve]
CCCn1ncc2c(Nc3ccc(C)c(C)c3)ncnc21 2.82 µM [activator, partial curve]
Cc1ccc(NC(=O)CCC(=O)c2cccs2)c(O)c1 3.55 µM [activator, single point]
O=[N+]([O-])c1ccccc1N/N=C/c1cc2ccccc2nc1Cl 3.55 µM [activator, single point]

Potency, inactive:
NC(=O)C1CCN(CC(O)COc2ccc(-c3ccccc3)cc2)CC1 (centres undefined)
Cc1ccc(C(=O)CCC(=O)NN2C(=O)NC3(CCCCC3)C2=O)cc1
CCC(=O)N1CCc2cc(Br)cc(S(=O)(=O)CCC(=O)N(C)c3cccc(C)c3)c21
COC(=O)CNC(=O)c1ccc(=O)oc1
C=CCn1c(=O)/c(=C2/Sc3cc(OC)ccc3N2C)s/c1=C1\C(=O)N(CC)C(=S)N1C
NC(N)=NS(=O)(=O)c1ccc(N/C=C\C(=O)c2ccncc2)cc1
CC(C)Oc1ccc(C(=O)Nc2ccc(C(F)(F)F)n(C)c2=O)cc1
COc1cccc(/C=N/NC(=O)c2ccoc2C)c1O
O=C(COC(=O)C1CC(=O)N(Cc2ccccc2)C1)Nc1ccc(Cl)cc1F (centres undefined)
COc1ccc(CCN(C)Cc2ccc(C(=O)Nc3ccccc3)cc2)cc1OC
COc1ccccc1/C=C(/CC(=O)NCc1ccc(F)cc1)c1nc2ccccc2s1
CCCCn1c(N)c(N(CC)C(=O)c2cc(CC)c(C)s2)c(=O)[nH]c1=O
O=C(Cc1ccc(Cl)c(Cl)c1)Nc1cccnc1

Potency, active:
CC1CCN(C(=O)c2cc3c(ccc4ccccc43)o2)CC1 0.282 µM
Cc1ccc2c(CC(=O)N3CCc4ccccc43)coc2c1 3.98 µM
O=C(Nc1cccc(C(=O)O)c1)Nc1cccc2ccccc12 3.55 µM
CN(C(=O)c1ccco1)c1nc(-c2ccc(F)cc2)cs1 2.82 µM
Cc1ccc(-c2nc3cc(NC(=O)C(C)C)ccc3o2)cc1 0.1 µM
COc1ccccc1NC(=O)C(=O)Nc1ccccn1 3.16 µM
CCN(C(=O)c1ccco1)c1nnc(-c2ccc(OC)cc2)s1 1.78 µM
c1ccc2[nH]c(NN=C3CCCCCC3)nc2c1 3.55 µM
Cc1ccccc1C(=O)O/N=C(\N)c1cccc([N+](=O)[O-])c1 4.47 µM
